# From PubChem BioAssay (NCATS)
# This list was built around the results that the source calls inconclusive (neither active nor inactive); the mix of calls is not that of the screen. Where the call is inconclusive, the potency comes from a doubtful curve fit. Active and inactive are the calls of the source. Unless noted, the call rests on the fitted dose curve; in most records, active means well fitted curve in the direction sought with a large enough effect; inconclusive means small, poorly fitted or top-dose-only effect, or another doubt; inactive means no such curve, though single readings can be large; an effect the other way counts as inactive or inconclusive.
# Legend:
# [1] = Viability qHTS for spleen associated tyrosine kinase inhibitor (SYKi) naive MV4-11 cells (AID 1963823); settings: MV4-11 AML viability, CellTiter-Glo luminescence, 72 h; series mostly up to 45 µM; further: nearly all actives have a fitted effect of over 40% in size
# Procedure, shortened: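 SYK inhibitor-naive MV4-11 cells, 500 per well, exposed to compounds for 72 hr at 37 C, 5% CO2. Viability read as CellTiter-Glo luminescence after 10 min at room temperature.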
# [2] = Cellular viability qHTS for adrenocortical cancer (ACC) cell line SW-13 (AID 1963989); settings: SW-13 ACC cells viability, CellTiter-Glo, 48 h; activity (max response): active compounds read low; further: nearly all actives have a fitted effect of over 65% in size;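 on activity (max response): cells grown in serum-free medium with ITS supplement; on the % scale 0 is the no-effect control and ±100 the full control effect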
# Procedure, shortened: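 Viability was read as CellTiter-Glo luminescence after 48 h compound treatment (up to 46 uM final) of SW-13 cells grown serum-free; titration curves were fit with a four-parameter logistic model to give IC50 and efficacy.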
# [3] = Cellular viability qHTS for adrenocortical cancer (ACC) cell line NCI-H295R (AID 1963990); settings: CellTiter-Glo ATP luminescence, 48 h; activity change, negative = viability loss: at 46.1 µM (top of the series); further: nearly all actives have a fitted effect of over 60% in size;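 on activity change, negative = viability loss: 0% = DMSO only wells and -100% = full killing with cytotoxic reference compound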
# Procedure, shortened: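 CellTiter-Glo ATP luminescence, read 48 h after compound addition, measured viability of NCI-H295R adrenocortical cells grown serum-free with ITS. Final concentrations spanned up to 46 uM. Data normalized to DMSO and doxorubicin, fitted for IC50 and maximal response.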
# [4] = Viability qHTS for spleen associated tyrosine kinase inhibitor (SYKi) drug resistant MV4-11 cells (AID 1963824); settings: SYKi-resistant MV4-11 viability, CellTiter-Glo, 72 h; series mostly up to 45 µM; further: nearly all actives have a fitted effect of over 35% in size
# Procedure, shortened: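 SYK inhibitor-resistant MV4-11 AML cells, 500 per well, added to predispensed compounds and incubated 72 hr at 37 C, 5% CO2. Viability measured by CellTiter-Glo luminescence after 10 min at room temperature.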
# [5] = biological target: Polyprotein P1234 (Chikungunya virus (strain S27-African prototype)) (UniProt Q8JUX6); assay: Selectivity profile for inhibitors of NSP2Pro chikungunya virus (CHIKV): Full length NSP2 enzyme counterscreen (CHIKV-NSP2) (AID 1964101; calls by dose curve; further: nearly all actives have a fitted effect of over 65% in size); settings: Full-length CHIKV NSP2 protease enzymatic counterscreen; activity change, negative = inhibition: at 50.7 µM (top of the series)
# [6] = biological target: Polyprotein P1234 (Chikungunya virus (strain S27-African prototype)) (UniProt Q8JUX6); assay: Selectivity profile for inhibitors of NSP2Pro chikungunya virus (CHIKV): Endogenous NS2/3 peptide Counterscreen (AID 1964103; calls by dose curve; further: nearly all actives have a fitted effect of over 55% in size); settings: Purified CHIKV nsP2 protease, endogenous NS2/3 peptide cleavage; series mostly up to 51 µM
# Potency means the concentration at half of the fitted maximal effect; tags describe the fitted curve by direction and shape.
# UniProt Q8JUX6, sequence (Q8JUX6 whole entry, looked up): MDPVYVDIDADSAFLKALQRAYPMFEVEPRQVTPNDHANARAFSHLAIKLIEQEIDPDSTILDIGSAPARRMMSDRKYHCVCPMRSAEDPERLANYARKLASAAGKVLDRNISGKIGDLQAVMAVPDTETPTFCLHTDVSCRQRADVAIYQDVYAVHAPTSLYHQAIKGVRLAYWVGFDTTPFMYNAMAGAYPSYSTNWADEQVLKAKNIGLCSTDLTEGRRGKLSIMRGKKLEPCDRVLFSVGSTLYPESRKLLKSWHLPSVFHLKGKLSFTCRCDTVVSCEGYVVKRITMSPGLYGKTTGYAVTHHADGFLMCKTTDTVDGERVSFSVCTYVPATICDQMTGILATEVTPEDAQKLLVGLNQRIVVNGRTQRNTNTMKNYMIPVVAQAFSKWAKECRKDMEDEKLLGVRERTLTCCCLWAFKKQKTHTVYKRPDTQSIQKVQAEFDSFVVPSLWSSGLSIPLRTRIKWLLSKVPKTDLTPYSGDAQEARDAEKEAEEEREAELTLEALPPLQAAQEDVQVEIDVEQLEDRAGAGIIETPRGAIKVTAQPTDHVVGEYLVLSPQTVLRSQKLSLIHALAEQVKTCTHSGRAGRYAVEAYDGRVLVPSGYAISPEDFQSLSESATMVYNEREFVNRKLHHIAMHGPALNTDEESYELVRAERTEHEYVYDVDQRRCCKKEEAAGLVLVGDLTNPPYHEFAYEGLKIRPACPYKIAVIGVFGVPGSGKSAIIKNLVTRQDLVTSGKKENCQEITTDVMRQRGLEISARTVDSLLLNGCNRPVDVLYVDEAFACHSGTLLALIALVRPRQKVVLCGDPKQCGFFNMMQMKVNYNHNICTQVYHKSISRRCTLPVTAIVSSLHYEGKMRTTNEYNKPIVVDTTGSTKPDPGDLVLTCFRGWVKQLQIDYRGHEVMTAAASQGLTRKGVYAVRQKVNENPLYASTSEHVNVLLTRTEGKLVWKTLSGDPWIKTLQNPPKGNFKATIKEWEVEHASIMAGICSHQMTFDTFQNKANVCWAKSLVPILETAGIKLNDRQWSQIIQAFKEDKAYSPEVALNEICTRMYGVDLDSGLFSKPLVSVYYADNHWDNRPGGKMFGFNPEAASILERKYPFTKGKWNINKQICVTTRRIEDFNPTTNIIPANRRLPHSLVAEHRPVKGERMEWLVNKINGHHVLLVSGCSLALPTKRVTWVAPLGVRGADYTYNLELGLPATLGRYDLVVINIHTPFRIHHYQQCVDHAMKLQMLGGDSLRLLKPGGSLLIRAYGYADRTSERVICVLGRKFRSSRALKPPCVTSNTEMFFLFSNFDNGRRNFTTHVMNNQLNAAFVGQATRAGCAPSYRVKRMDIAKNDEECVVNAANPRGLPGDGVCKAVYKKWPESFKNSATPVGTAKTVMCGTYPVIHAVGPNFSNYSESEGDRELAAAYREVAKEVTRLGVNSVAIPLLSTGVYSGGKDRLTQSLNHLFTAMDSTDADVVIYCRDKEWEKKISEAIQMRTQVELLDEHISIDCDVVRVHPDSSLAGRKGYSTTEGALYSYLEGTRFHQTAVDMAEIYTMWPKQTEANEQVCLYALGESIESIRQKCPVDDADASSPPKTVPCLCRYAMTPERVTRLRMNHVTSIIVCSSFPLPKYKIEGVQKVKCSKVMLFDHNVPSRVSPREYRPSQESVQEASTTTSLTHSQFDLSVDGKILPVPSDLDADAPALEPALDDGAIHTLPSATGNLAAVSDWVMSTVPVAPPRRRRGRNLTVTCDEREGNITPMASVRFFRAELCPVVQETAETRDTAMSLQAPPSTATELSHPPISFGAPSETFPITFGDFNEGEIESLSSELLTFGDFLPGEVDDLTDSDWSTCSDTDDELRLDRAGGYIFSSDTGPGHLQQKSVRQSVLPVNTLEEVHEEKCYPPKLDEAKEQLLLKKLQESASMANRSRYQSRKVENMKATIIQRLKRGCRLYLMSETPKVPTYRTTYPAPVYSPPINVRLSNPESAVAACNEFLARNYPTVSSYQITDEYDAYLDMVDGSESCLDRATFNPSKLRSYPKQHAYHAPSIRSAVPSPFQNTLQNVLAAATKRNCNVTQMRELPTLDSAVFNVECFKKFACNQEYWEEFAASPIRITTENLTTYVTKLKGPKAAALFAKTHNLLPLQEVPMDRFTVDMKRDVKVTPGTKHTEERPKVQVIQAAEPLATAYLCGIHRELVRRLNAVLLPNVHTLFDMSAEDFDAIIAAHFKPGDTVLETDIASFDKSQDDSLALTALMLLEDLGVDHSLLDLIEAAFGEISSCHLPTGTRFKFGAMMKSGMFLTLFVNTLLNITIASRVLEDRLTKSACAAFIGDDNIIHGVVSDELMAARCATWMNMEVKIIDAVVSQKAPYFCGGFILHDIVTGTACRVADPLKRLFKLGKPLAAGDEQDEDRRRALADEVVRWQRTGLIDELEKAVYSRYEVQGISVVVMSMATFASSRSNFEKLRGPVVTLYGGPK
structure (smiles),measurement,setting,value
CNC(=O)NC(O)C(Cl)(Cl)Cl (configuration not stated),Potency,[1],inactive
same,Potency,[2],"inconclusive: 29.1 µM [cytotoxic, single point]"
CC[C@H](O)C(C[C@H](C)N(C)C)(c1ccccc1)c1ccccc1,Potency,[1],"inconclusive: 27.8 µM [cytotoxic, partial curve, poor fit]"
same,Potency,[3],"inconclusive: 14.1 µM [cytotoxic, single point]"
Cc1ccc(N=CN(C)C=Nc2ccc(C)cc2C)c(C)c1,Potency,[1],inactive
same,activity (max response),[2],inactive: 9.45%
Oc1ccc2[nH]cc(CCCCN3CC=C(c4ccccc4)CC3)c2c1,Potency,[1],active: 8.41 µM
same,Potency,[2],"inconclusive: 18.4 µM [cytotoxic, single point]"
same,Potency,[3],"inconclusive: 29.1 µM [cytotoxic, single point]"
CC(C)(O)/C=C\C(=O)[C@](C)(O)[C@H]1[C@H](O)C[C@]2(C)[C@@H]3CC=C4[C@@H](C=C(O)C(=O)C4(C)C)[C@]3(C)C(=O)C[C@@]12C,Potency,[1],active: 0.059 µM
same,Potency,[2],active: 0.562 µM
same,Potency,[3],active: 1.26 µM
COC(C)(C)CCCC(C)C/C=C/C(C)=C/C(=O)OC(C)C (configuration not stated),Potency,[1],inactive
same,Potency,[3],inactive
Cc1nc2ccccc2c(=O)n1-c1ccccc1Cl,Potency,[4],"inconclusive: 3.78 µM [cytotoxic, partial curve, poor fit]"
CO[C@H]1[C@H](O)[C@H](O[C@H]2CC[C@]3(C)C4CC[C@]5(C)[C@H](C6=CC(=O)OC6)CC[C@]5(O)C4CC[C@@H]3C2)O[C@@H](C)[C@@H]1O (some centres not stated),Potency,[4],active: 0.0112 µM
CC1CCCC(O)CCC/C=C/c2cc(O)cc(O)c2C(=O)O1 (configuration not stated),Potency,[4],"inconclusive: 12.8 µM [cytotoxic, partial curve]"
c1cncc(OC[C@@H]2CCN2)c1,Potency,[4],inactive
C[C@H]1C(=O)O[C@@H]2CCN3CC=C(COC(=O)[C@](C)(O)[C@]1(C)O)[C@H]23,Potency,[1],inactive
same,"activity change, negative = viability loss",[3],inconclusive: -31.8% [cytotoxic]
CCC(=O)O[C@@H]1C=C2CCC3C(CCC4(C)C3CC[C@@H]4OC(=O)CC)C2CC1 (some centres not stated),Potency,[1],inactive
same,Potency,[3],"inconclusive: 20.6 µM [cytotoxic, single point]"
CC1C/C=C/C(O)C(O)CC/C=C/c2cc(O)cc(O)c2C(=O)O1 (configuration not stated),Potency,[4],active: 8.05 µM
COP(=S)(OC)Oc1ccc(Sc2ccc(OP(=S)(OC)OC)cc2)cc1,Potency,[4],inactive
C=C(C)C(=O)O[C@H]1[C@@H]2[C@H](C)C(=O)O[C@@H]2C[C@@H](C)[C@@H]2C=CC(=O)[C@]21C,Potency,[4],active: 1.14 µM
COC(=O)[C@]12CCC(C)(C)C[C@H]1[C@H]1C(=O)C=C3[C@@]4(C)C=C(C#N)C(=O)C(C)(C)[C@@H]4CC[C@@]3(C)[C@]1(C)CC2,Potency,[1],"inconclusive: 2.95 µM [cytotoxic, full curve]"
same,Potency,[5],"inconclusive: 5.8 µM [inhibitor, full curve]"
same,Potency,[6],"inconclusive: 8.19 µM [inhibitor, full curve]"
CCC1=CC2CN3CCc4c([nH]c5ccccc45)[C@@](C(=O)OC)(C2)[C@@H]13,Potency,[4],"inconclusive: 16.1 µM [cytotoxic, partial curve]"
C[C@@H]1O[C@@H](OC2CCC3(C=O)C(CCC4C3CCC3(C)C(C5=CC(=O)OC5)C(O)CC43O)C2)[C@H](O)[C@H](O)[C@H]1O[C@@H]1O[C@H](CO)[C@@H](O)[C@H](O)[C@H]1O (some centres not stated),Potency,[4],active: 1.72 µM
NC(=O)OCCCc1ccccc1,Potency,[1],inactive
same,Potency,[3],inactive
COC(=O)C1(C)CCC(=O)C2(C)c3c(O)cc(C(C)C)cc3C(O)C(OC(C)=O)C12 (configuration not stated),Potency,[4],inactive
COc1cc(CCN)cc(OC)c1OC,Potency,[4],inactive
O=C1c2ccccc2C(=O)c2ccccc21,Potency,[1],inactive
same,Potency,[3],inactive
NP(N)(=O)NC(=O)c1ccc(F)cc1,Potency,[4],inactive
CCC(CC)(CNC(=O)CCCO)c1cccc(OC)c1,Potency,[1],"inconclusive: 11.9 µM [cytotoxic, partial curve, poor fit]"
same,Potency,[3],inactive
CCC(C(N)=O)N1CCCC1=O (configuration not stated),Potency,[1],inactive
same,Potency,[3],"inconclusive: 11.6 µM [cytotoxic, partial curve, poor fit]"
N#C/C(=C/c1ccc(O)c(O)c1)C(N)=S,Potency,[4],"inconclusive: 10.3 µM [cytotoxic, partial curve]"
CCN(CCO)CCn1c(Cc2ccccc2)nc2c1c(=O)n(C)c(=O)n2C,Potency,[1],"inconclusive: 0.0094 µM [cytotoxic, full curve, poor fit]"
same,Potency,[3],inactive
COc1cc2c(cc1F)C(c1ccccc1Cl)=Nc1c(n[nH]c1C)N2,Potency,[1],active: 0.517 µM
same,Potency,[3],inactive
CCOC(=O)Nc1ccc(NCc2c(C)cc(C)cc2C)cc1N,Potency,[1],"inconclusive: 9.2 µM [cytotoxic, partial curve]"
same,Potency,[6],"inconclusive: 2.31 µM [inhibitor, full curve]"
C=C1[C@@]23C(=O)O[C@H](C)[C@]24O[C@@]2(C(=C)[C@]5(C=CC(=O)OC5(C)C)CC[C@]32C)[C@H](O)[C@@]1(C)OC4=O,Potency,[4],inactive
Oc1ccc2c3c1O[C@H]1[C@@H](O)C=C[C@H]4[C@@H](C2)NCC[C@@]341,Potency,[4],"inconclusive: 31.5 µM [cytotoxic, single point]"
O=C1C[C@@H]2OCC=C3CN4CC[C@]56c7ccccc7N1[C@H]5[C@H]2[C@H]3C[C@H]46,Potency,[4],inactive
C[C@@H]1[C@H](O)[C@@H](C)/C=C/C=C/CC/C=C/C=C/C=C/C=C/[C@H](O[C@H]2O[C@@H](C)[C@H](O)[C@@H](N)[C@H]2O)C[C@@H]2O[C@](O)(C[C@@H](O)[C@H](O)CC[C@@H](O)C[C@@H](O)C[C@@H](O)CC(=O)O[C@H]1C)C[C@H](O)[C@H]2C(=O)O,Potency,[4],"inconclusive: 8.93 µM [cytotoxic, single point]"
